Source: PubChem BioAssay (NCATS)
This list was built around the results that the source calls inconclusive (neither active nor inactive); the mix of calls is not that of the screen. Potencies of inconclusive entries are doubtful fits and often do not repeat. Calls of active or inactive are those of the source. The call rests on the fitted dose curve; in most records, active means well fitted inhibition curve with a large enough effect; inconclusive means small, poorly fitted or top-dose-only effect; inactive means no such curve, though single readings can be large or run the other way.

Biological target: Retinaldehyde dehydrogenase 3 (Homo sapiens) (UniProt P47895)
Assay: qHTS for Inhibitors of the Aldehyde Dehydrogenase Family (ALDH1A3) Primary screen (AID 2061315)
Conditions: ALDH inhibition qHTS; series mostly up to 56 µM
Potency means the concentration at half of the fitted maximal effect; tags describe the fitted curve by direction and shape.

Row | SMILES | Potency
1 | O=C(/C=C/c1ccc(O)c(O)c1)OC[C@H]1O[C@@H](OC2CCCCC2O)[C@H](O)[C@@H](O)[C@@H]1O (some centres not stated) | inconclusive: 7.08 µM [inhibitor, single point]
2 | CCOc1ccc(CCNC(C)=O)cc1OCC | inconclusive: 31.6 µM [inhibitor, single point]
3 | CCOc1ccc(CCNC(=O)c2cc3ccccc3n2C)cc1OCC | inactive
4 | OCCc1ccc(O[C@@H]2O[C@H](CO)[C@@H](O)[C@H](O)[C@H]2O)c(O)c1 | inconclusive: 20 µM [inhibitor, single point]
5 | C[C@@]12C(=O)N(c3ccc(C(=O)Nc4cccc5cccnc45)cc3)C(=O)[C@@H]1[C@@H]1C=C[C@H]2C1 | inactive
6 | CC(CO[C@@H]1O[C@H](COC(=O)/C=C/c2ccc(O)c(O)c2)[C@@H](O)[C@H](O)[C@H]1O)C1(O)COC(=O)C1 (some centres not stated) | inconclusive: 6.31 µM [inhibitor, partial curve]
7 | C/C(=C\c1ccc(F)cc1)C1Nc2cccc3cccc(c23)N1 | inconclusive: 3.55 µM [inhibitor, full curve]
8 | O=C(O)/C=C/c1cc2c(cc1O[C@@H]1O[C@H](CO)[C@@H](O)[C@H](O)[C@H]1O)OCO2 | inconclusive: 5.62 µM [inhibitor, partial curve, poor fit]
9 | CN(C)c1cccc(-c2cc(N3CCC(C(N)=O)CC3)ncn2)c1 | inactive
10 | COc1cccc(Cn2ncc3c4sc(B(O)O)cc4n(C)c3c2=O)c1 | inconclusive: 10 µM [inhibitor, partial curve]
11 | C=C1CCC2C(C)(COC3OC(COC(=O)CC(=O)O)C(O)C(O)C3O)CCCC2(C)C1CCC1=CCOC1=O (configuration not stated) | inconclusive: 7.08 µM [inhibitor, partial curve, poor fit]
12 | Cn1c2cc(Br)sc2c2cnn(Cc3c(F)cccc3Cl)c(=O)c21 | inconclusive: 10 µM [inhibitor, partial curve, poor fit]
13 | NCCOCCOCCNC(=O)Cc1ccc(Nc2nc(NCc3ccc(F)cc3)nc(NCC3CCCCC3)n2)cc1 | inactive
14 | O=C(CCc1nnc2n(Cc3ccc(Cl)cc3)c(=O)c3ccccc3n12)NCCC1=CCCCC1 | inactive
15 | O=S(=O)(Nc1cccc2cccnc12)c1ccccc1O | inconclusive: 12.6 µM [inhibitor, partial curve]
16 | Cc1cc(NCc2ccc(-c3cccnc3)cc2)nc(-c2ccccc2C(C)C)n1 | inconclusive: 1.41 µM [inhibitor, full curve, poor fit]
17 | CC1=C(C(=O)O[C@@H]2O[C@H](COC3OCC(O)C(O)C3O)[C@@H](O)[C@H](O)[C@H]2O)C(C)(C)CCC1 (some centres not stated) | inconclusive: 17.8 µM [inhibitor, single point]
18 | O=C(Nc1ccc(-c2nc3ccccc3[nH]2)cc1)c1ccc2n[nH]nc2c1 | inactive
19 | CCc1c(C)nc2cc(-c3ccc(OC)c(OC)c3)nn2c1N1CCCC1 | inactive
20 | O=S(=O)(Nc1ccc(C(O)(C(F)(F)F)C(F)(F)F)cc1)c1cccs1 | inactive
21 | Cc1ccc(-c2ccc(=O)n(CC(=O)NCCc3ccccc3)c2)cc1 | inconclusive: 35.5 µM [inhibitor, partial curve, poor fit]
22 | OCC1OC(Oc2cc(O)cc(/C=C/c3ccc(O)cc3)c2)C(O)C(O)C1O (configuration not stated) | active: 3.55 µM
23 | C=C1CC[C@@H]2[C@](C)(CO)[C@H](O)CC[C@@]2(C)[C@@H]1/C=C/C1=CCOC1=O | inconclusive: 5.62 µM [inhibitor, partial curve]
24 | O=C(/C=C/c1ccc(O)cc1)O[C@H]1[C@@H]2C=CO[C@@H](O[C@@H]3O[C@H](CO)[C@@H](O)[C@H](O)[C@H]3O)[C@@H]2[C@@]2(CO)O[C@@H]12 | inconclusive: 7.94 µM [inhibitor, partial curve]
25 | COC(=O)C[C@H]1[C@]2(C)C3=C(C)[C@H](c4ccoc4)C[C@H]3O[C@@H]2[C@H](OC(C)=O)C2[C@](C)(C(=O)OC)C=CC(=O)[C@@]21C (some centres not stated) | inconclusive: 11.2 µM [inhibitor, partial curve]
26 | Fc1cc(Nc2nc(-c3ccncc3)nc3ccccc23)ccc1OC(F)(F)F | inconclusive: 3.16 µM [inhibitor, full curve, poor fit]
27 | NCc1c[nH]c(=S)n1[C@@H]1CCc2c(F)cc(F)cc2C1 | inactive
